# Test results taken from the supplement of paper PMC8728848.
# The list shows a part of the results.
# B1: PX15618B-bfa-464-25-464 (Bacteroides fragilis) (protein)
# chain: DQEPPLYVNENDIFTSPTRIEATLNGLYAAIKNTGTKSLMGGKSYLVFDNRGDDVINISNNLVTLFNTYNMNVGITDAENADTWTYAYLAINKVNTFLQSLEGAREVAGENYDRYVQEAKFVRALAYYYLNNLYPTPYSVNPDAKSVPLRLTAEAGTENNNMPRSTVKQIYEHILSDLENISALDTEVNTYTGVTHATQAAANMLKMRVYMAMNEWDKAITAGELVTGYSLPEDVTLIYKAPYFSQESIFSLPMADTNIPNTQQSLAEYYYDGKIMLIDTKSGIMSKPDYSLATDKRIIAFKGEKDLLMKFTDAKTKLQWVPIFRYAETLLDLAECYANKAGGEATAKSLLKQVRGRSVDAATDPLNIDNLSGDALKEAIYNEKRLEFIGEGIRGIDIMRRGEHFIKVGENETINVGPSDEKYTWPIPQVELLLNKDINK
# Columns and labels:
# Experiment in all cases: glycan array binding signal (z-score within array); higher = stronger binding
# Conditions in all cases: glycan notation: IUPAC condensed, linker removed
# Fuc(a1-2)Gal = biological target: Fuc(a1-2)Gal
# In short: (§1)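 The binding signal is a Z-score computed within each array. Data were drawn from 3228 arrays in the Consortium for Functional Glycomics database, restricted to those with a known protein sequence. Scores were averaged over arrays of the same protein sequence at different concentrations or buffers, and over linkers, and negative values can be taken as non-binding.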
# Fuc(a1-2)Gal(b1-3)GalNAc = biological target: Fuc(a1-2)Gal(b1-3)GalNAc
# In short: as §1
# [1] = biological target: Fuc(a1-2)Gal(b1-3)GalNAc(a1-3)[Fuc(a1-2)]Gal(b1-4)Glc
# In short: as §1
# [2] = biological target: Fuc(a1-2)Gal(b1-3)GalNAc(a1-3)[Fuc(a1-2)]Gal(b1-4)GlcNAc
# In short: as §1
# [3] = biological target: Fuc(a1-2)Gal(b1-3)GalNAc(b1-3)Gal
# In short: as §1
# [4] = biological target: Fuc(a1-2)Gal(b1-3)GalNAc(b1-3)Gal(a1-4)Gal(b1-4)Glc
# In short: as §1
# [5] = biological target: Fuc(a1-2)Gal(b1-3)GalNAc(b1-4)[Neu5Ac(a2-3)]Gal(b1-4)Glc
# In short: as §1
# Fuc(a1-2)Gal(b1-3)GlcNAc = biological target: Fuc(a1-2)Gal(b1-3)GlcNAc
# In short: as §1
# [6] = biological target: Fuc(a1-2)Gal(b1-3)GlcNAc(b1-2)Man(a1-3)[Fuc(a1-2)Gal(b1-3)GlcNAc(b1-2)Man(a1-6)]Man(b1-4)GlcNAc(b1-4)GlcNAc
# In short: as §1
# [7] = biological target: Fuc(a1-2)Gal(b1-3)GlcNAc(b1-2)Man(a1-3)[Fuc(a1-2)Gal(b1-3)GlcNAc(b1-2)Man(a1-6)]Man(b1-4)GlcNAc(b1-4)[Fuc(a1-6)]GlcNAc
# In short: as §1
# [8] = biological target: Fuc(a1-2)Gal(b1-3)GlcNAc(b1-3)Gal(b1-4)Glc
# In short: as §1
# [9] = biological target: Fuc(a1-2)Gal(b1-3)GlcNAc(b1-3)GalNAc
# In short: as §1
# [10] = biological target: Fuc(a1-2)Gal(b1-3)GlcNAc(b1-3)[Fuc(a1-2)Gal(b1-3)GlcNAc(b1-6)]GalNAc
# In short: as §1
# [11] = biological target: Fuc(a1-2)Gal(b1-3)GlcNAc(b1-3)[Gal(b1-4)GlcNAc(b1-6)]Gal(b1-4)Glc
# In short: as §1
# [12] = biological target: Fuc(a1-2)Gal(b1-3)GlcNAc(b1-3)[Neu5Ac(a2-6)Gal(b1-4)GlcNAc(b1-6)]Gal(b1-4)Glc
# In short: as §1
# [13] = biological target: Fuc(a1-2)Gal(b1-3)GlcNAc6S
# In short: as §1
# [14] = biological target: Fuc(a1-2)Gal(b1-3)[Fuc(a1-4)]GlcNAc
# In short: as §1
# [15] = biological target: Fuc(a1-2)Gal(b1-3)[Fuc(a1-4)]GlcNAc(b1-2)Man(a1-3)[Fuc(a1-2)Gal(b1-3)[Fuc(a1-4)]GlcNAc(b1-2)Man(a1-3)]Man(b1-4)GlcNAc(b1-4)GlcNAc
# In short: as §1
# [16] = biological target: Fuc(a1-2)Gal(b1-3)[Fuc(a1-4)]GlcNAc(b1-2)Man(a1-3)[Fuc(a1-2)Gal(b1-3)[Fuc(a1-4)]GlcNAc(b1-2)Man(a1-6)]Man(b1-4)GlcNAc(b1-4)[Fuc(a1-6)]GlcNAc(b1-4)[Fuc(a1-6)]GlcNAc
# In short: as §1
# [17] = biological target: Fuc(a1-2)Gal(b1-3)[Fuc(a1-4)]GlcNAc(b1-3)[Fuc(a1-3)[Gal(b1-4)]GlcNAc(b1-6)]Gal(b1-4)Glc
# In short: as §1
# [18] = biological target: Fuc(a1-2)Gal(b1-3)[Fuc(a1-4)]GlcNAc(b1-3)[Gal(b1-4)GlcNAc(b1-6)]Gal(b1-4)Glc
# In short: as §1
# Fuc(a1-2)Gal(b1-4)Glc = biological target: Fuc(a1-2)Gal(b1-4)Glc
# In short: as §1
# Fuc(a1-2)Gal(b1-4)Glc6S = biological target: Fuc(a1-2)Gal(b1-4)Glc6S
# In short: as §1
# Fuc(a1-2)Gal(b1-4)GlcNAc = biological target: Fuc(a1-2)Gal(b1-4)GlcNAc
# In short: as §1
# [19] = biological target: Fuc(a1-2)Gal(b1-4)GlcNAc(b1-2)Man
# In short: as §1
# [20] = biological target: Fuc(a1-2)Gal(b1-4)GlcNAc(b1-2)Man(a1-3)[Fuc(a1-2)Gal(b1-4)GlcNAc(b1-2)Man(a1-6)]Man(b1-4)GlcNAc(b1-4)GlcNAc
# In short: as §1
# [21] = biological target: Fuc(a1-2)Gal(b1-4)GlcNAc(b1-2)Man(a1-3)[Fuc(a1-2)Gal(b1-4)GlcNAc(b1-2)Man(a1-6)]Man(b1-4)GlcNAc(b1-4)[Fuc(a1-6)]GlcNAc
# In short: as §1
# [22] = biological target: Fuc(a1-2)Gal(b1-4)GlcNAc(b1-2)[Fuc(a1-2)Gal(b1-4)GlcNAc(b1-4)]Man(a1-3)[Fuc(a1-2)Gal(b1-4)GlcNAc(b1-2)Man(a1-6)]Man(b1-4)GlcNAc(b1-4)GlcNAc
# In short: as §1
# [23] = biological target: Fuc(a1-2)Gal(b1-4)GlcNAc(b1-3)Gal(b1-4)GlcNAc
# In short: as §1
# [24] = biological target: Fuc(a1-2)Gal(b1-4)GlcNAc(b1-3)Gal(b1-4)GlcNAc(b1-2)Man(a1-3)[Fuc(a1-2)Gal(b1-4)GlcNAc(b1-3)Gal(b1-4)GlcNAc(b1-2)Man(a1-6)]Man(b1-4)GlcNAc(b1-4)GlcNAc
# In short: as §1
# [25] = biological target: Fuc(a1-2)Gal(b1-4)GlcNAc(b1-3)Gal(b1-4)GlcNAc(b1-3)Gal(b1-4)GlcNAc
# In short: as §1
# [26] = biological target: Fuc(a1-2)Gal(b1-4)GlcNAc(b1-3)GalNAc
# In short: as §1
# [27] = biological target: Fuc(a1-2)Gal(b1-4)GlcNAc(b1-3)[Fuc(a1-2)Gal(b1-4)GlcNAc(b1-6)]GalNAc
# In short: as §1
# [28] = biological target: Fuc(a1-2)Gal(b1-4)GlcNAc(b1-3)[Fuc(a1-3)[Gal(b1-4)]GlcNAc(b1-6)]Gal(b1-4)Glc
# In short: as §1
# [29] = biological target: Fuc(a1-2)Gal(b1-4)GlcNAc(b1-6)GalNAc
# In short: as §1
# [30] = biological target: Fuc(a1-2)Gal(b1-4)GlcNAc6S
# In short: as §1
# [31] = biological target: Fuc(a1-2)Gal(b1-4)[Fuc(a1-3)]GlcNAc
# In short: as §1
# [32] = biological target: Fuc(a1-2)Gal(b1-4)[Fuc(a1-3)]GlcNAc(b1-2)Man(a1-3)[Fuc(a1-2)Gal(b1-4)[Fuc(a1-3)]GlcNAc(b1-2)Man(a1-6)]Man(b1-4)GlcNAc(b1-4)[Fuc(a1-6)]GlcNAc
# In short: as §1
# [33] = biological target: Fuc(a1-2)Gal(b1-4)[Fuc(a1-3)]GlcNAc(b1-2)[Fuc(a1-2)Gal(b1-4)[Fuc(a1-3)]GlcNAc(b1-4)]Man(a1-3)[Fuc(a1-2)Gal(b1-4)[Fuc(a1-3)]GlcNAc(b1-2)Man(a1-6)]Man(b1-4)GlcNAc(b1-4)GlcNAc
# In short: as §1
# [34] = biological target: Fuc(a1-2)Gal(b1-4)[Fuc(a1-3)]GlcNAc(b1-3)Gal(b1-4)[Fuc(a1-3)]GlcNAc
# In short: as §1
# [35] = biological target: Fuc(a1-2)Gal(b1-4)[Fuc(a1-3)]GlcNAc(b1-3)Gal(b1-4)[Fuc(a1-3)]GlcNAc(b1-3)Gal(b1-4)[Fuc(a1-3)]GlcNAc
# In short: as §1
# [36] = biological target: Fuc(a1-2)Gal(b1-4)[Fuc(a1-3)]GlcNAc(b1-3)GalNAc
# In short: as §1
# [37] = biological target: Fuc(a1-2)Gal(b1-4)[Fuc(a1-3)]GlcNAc(b1-3)[Neu5Ac(a2-6)Gal(b1-4)GlcNAc(b1-6)]Gal(b1-4)Glc
# In short: as §1
# [38] = biological target: Fuc(a1-2)Gal3S(b1-4)GlcNAc
# In short: as §1
# [39] = biological target: Fuc(a1-2)Gal6S(b1-3)GlcNAc
# In short: as §1
binder,measurement,setting,value
B1,glycan array binding signal (z-score),Fuc(a1-2)Gal,-0.574
same,glycan array binding signal (z-score),Fuc(a1-2)Gal(b1-3)GalNAc,-0.355
same,glycan array binding signal (z-score),[1],-0.051
same,glycan array binding signal (z-score),[2],-0.094
same,glycan array binding signal (z-score),[3],-0.054
same,glycan array binding signal (z-score),[4],-0.132
same,glycan array binding signal (z-score),[5],0.122
same,glycan array binding signal (z-score),Fuc(a1-2)Gal(b1-3)GlcNAc,0.317
same,glycan array binding signal (z-score),[6],0.594
same,glycan array binding signal (z-score),[7],0.441
same,glycan array binding signal (z-score),[8],-0.162
same,glycan array binding signal (z-score),[9],0.109
same,glycan array binding signal (z-score),[10],1.41
same,glycan array binding signal (z-score),[11],-0.172
same,glycan array binding signal (z-score),[12],-0.243
same,glycan array binding signal (z-score),[13],-0.214
same,glycan array binding signal (z-score),[14],-0.705
same,glycan array binding signal (z-score),[15],0.233
same,glycan array binding signal (z-score),[16],-0.542
same,glycan array binding signal (z-score),[17],-0.516
same,glycan array binding signal (z-score),[18],-0.37
same,glycan array binding signal (z-score),Fuc(a1-2)Gal(b1-4)Glc,0.052
same,glycan array binding signal (z-score),Fuc(a1-2)Gal(b1-4)Glc6S,0.232
same,glycan array binding signal (z-score),Fuc(a1-2)Gal(b1-4)GlcNAc,-0.121
same,glycan array binding signal (z-score),[19],-0.489
same,glycan array binding signal (z-score),[20],8.2
same,glycan array binding signal (z-score),[21],-0.037
same,glycan array binding signal (z-score),[22],0.128
same,glycan array binding signal (z-score),[23],-0.638
same,glycan array binding signal (z-score),[24],0.162
same,glycan array binding signal (z-score),[25],0.251
same,glycan array binding signal (z-score),[26],-0.586
same,glycan array binding signal (z-score),[27],-0.077
same,glycan array binding signal (z-score),[28],0.969
same,glycan array binding signal (z-score),[29],-0.614
same,glycan array binding signal (z-score),[30],-0.396
same,glycan array binding signal (z-score),[31],-0.251
same,glycan array binding signal (z-score),[32],0.793
same,glycan array binding signal (z-score),[33],4.25
same,glycan array binding signal (z-score),[34],0.306
same,glycan array binding signal (z-score),[35],-0.085
same,glycan array binding signal (z-score),[36],-0.338
same,glycan array binding signal (z-score),[37],-0.095
same,glycan array binding signal (z-score),[38],-0.514
same,glycan array binding signal (z-score),[39],-0.718
